Data: the RNAGym collection of RNA variant scans (doi:10.7554/elife.90254)
Read counts are not given, so values of variants with three or more changes are uncertain.

B1: LINE1-mini (parent)
chain: GGCAGAGCUCAACACAGCGUGGCAAAGUGGCUGUGGCUAGACUGCC

Variants of: B1
Assay: self-cleavage, relative activity (ratio to wild type); higher = more cleavage; in vitro, sequencing; the parent is a self-cleaving ribozyme

| Variant | self-cleavage |
| --- | --- |
| A16U G40C C42A C46A | 0.03 |
| G17A C23A A25U A39C | 0.03 |
| A16G G17U G21C C37U | 0.01 |
| A16G G21C A24C G30A | 0.05 |
| G17A U20C G33C C45U | 0.01 |
| G17C A25U G30C G35A C37U | 0.05 |
| A16G G27C U34C | 0.04 |
| G17A G30C G33U G40U A41U | 0.05 |
| A16U G36C A41G | 0.02 |
| G17A G36U G44U | 0.01 |
| G17U C18A U38C | 0.07 |
| G17A C18G A39C | 0 |
| G17A U20C G29A G30U | 0.04 |
| A16U A24C C37U | 0.1 |
| A16U C18U G21U G22U U32A | 0.16 |
| G17A C42U C45U | 0.04 |
| G17U A24C G40U A41C | 0.07 |
| G17C C18A G29A | 0.15 |
| A16C G35A A41G | 0.03 |
| A16U G29U U32A A39C | 0.01 |
| A16U G17C G21C | 0.04 |
| A16G A24C C31U | 0.09 |
| G17A G29C C42A | 0.01 |
| A16C G17C C18A U32A | 0.15 |

| Variant | self-cleavage |
| --- | --- |
| A16C G17U C23U C45U | 0.81 |
| A16G C23U G30C | 0.85 |
| A16U G29C G44U | 0.04 |
| A16C G21U U34A C37U A39G | 0.01 |
| A16C U20A A24C C31A U38G | 0 |
| A16C G21U A26U G44C C45U | 0.01 |
| G17C U38A G40U | 0.04 |
| G17C C23G G30C | 0.03 |
| A16G G19U G36U U38A A41U | 0.01 |
| A16C U20A G29A | 0.58 |
| G17A G21C C46A | 1.02 |
| A16C G33U G36C U38G | 0.02 |
| G17C C23G G40A | 0 |
| G17A G27C G30A | 0.73 |
| A16U C23A U38C | 0.13 |
| A16U G17U G27C | 0.14 |
| G17U C18G G27U | 0.17 |
| G17C U34A U43A | 0.01 |
| A16U G29A G36U A41G | 0.1 |
| A16C G19U G44U | 0.01 |
| G17C A24C A39G G44A C45A | 0.03 |
| A16U G19C U20A C31G G44A | 0.02 |
| G17C G21U U34C | 0 |
| G17C U20C G22A A39U | 0.23 |

| Variant | self-cleavage |
| --- | --- |
| A16C G33U C45G | 0 |
| A16C G17U G21A A25C U38A | 0.07 |
| A16G G21U G33C | 0.02 |
| G17A G30A C31A | 0.14 |
| G17A U20C C37A C42A | 0 |
| G17C A26C G29A G44A | 0.23 |
| A16C G17U C45A C46G | 0.03 |
| G17A C23U A39U | 0.1 |
| G17C C18A A24U | 0.11 |
| A16G C18U G19A A41C | 0.03 |
| G17A U20G G21U G44C | 0.01 |
| G17A G27U U34A G36U | 0.02 |
| A16U G21A G22C G44C | 0.05 |
| A16U G19U A39G A41C G44A | 0.01 |
| G17A U20G C37A U38G | 0.01 |
| A16U G27A G29A C45A | 0.08 |
| G17A G29U G33U C37U | 0.08 |
| G17C G36U C37G | 0.11 |
| A16C G40A C45G | 0.01 |
| G17C G22C A39C | 0.04 |
| G17A A24U G27U C45A | 0.04 |
| A16U G33C C46A | 0.06 |
| G17C G19C A25G U28A G33U | 0.05 |
| A16G U28C U32A | 0.03 |

| Variant | self-cleavage |
| --- | --- |
| A16C G22C A24G G29C U38A C42A | 0.02 |
| A16G U20A G27A U28A C42U | 0.04 |
| G17U A25U G27U G36A G40A | 0.03 |
| G17C G29U G35A | 0 |
| A16C C23G G36U | 0.02 |
| G17C G29C U38G G44A | 0.04 |
| A16G U34G G44U | 0.01 |
| A16C G17U G21C G27C G36A | 0.12 |
| A16U G21U G36C | 0.03 |
| G17U A26C A41U G44U C45G | 0.01 |
| G17A C31A U34G | 0 |
| A16G C23A G27A | 0.67 |
| A16U U32G U34G A39G | 0 |
| G17A G21U G40C C42A | 0.08 |
| G17A C18A G21C C31A C37U | 0.02 |
| A16U C31U C45A | 0 |
| G17C C23A G33C G40A | 0.03 |
| G17A G22A C42A | 0.01 |
| G17A A26C U28A G30U A41C | 0.01 |
| G17C A26U G36C C37A | 0.06 |
| G17A G29A U34G G36U | 0.02 |
| A16U U28A G33C C45U | 0.02 |
| A16G G36A U43C | 0.07 |
| A16G G19C A26G | 0.05 |

| Variant | self-cleavage |
| --- | --- |
| G17A A39G U43C | 0 |
| G17C G35U G40C | 0.07 |
| A16C U28C G40C | 0.04 |
| G17C G21U G29C | 0.61 |
| G17A G21U A39G | 0.1 |
| G17A U20A G21U C37G A41U C42A | 0.05 |
| A16G A26G C46A | 0.24 |
| A16C G21U G29C G30C | 0.01 |
| A16G G19C G27A G36A | 0.34 |
| A16G G30A U38G G44U | 0.04 |
| A16U G17C U32A | 0.25 |
| G17A U38A A39U | 0.1 |
| A16G A26U C37G | 0.02 |
| A16G G21U G27C | 0.52 |
| A16C G19A C46A | 0.15 |
| A16G U20A G29A A39U | 0.63 |
| A16U G22U C46A | 0.08 |
| G17C C23U C42G | 0.02 |
| A16G C18G G35A C37U | 0.05 |
| G17C G22U A24U C31A A39U C42G | 0.01 |
| G17A A41G U43A | 0.01 |
| G17U C18A G22C U43C | 0.02 |
| A16G G21U C37A | 0.03 |
| A16C G22A A39U | 0.07 |

| Variant | self-cleavage |
| --- | --- |
| A16U C23U G35U | 0.03 |
| G17U C18A G29U C31U C42A | 0.05 |
| G17C G30C G35U U38C | 0 |
| G17U A25C G29A | 0.38 |
| G17C C18A G22U A41G C42A | 0.08 |
| A16U G19A A26C G33A G44U | 0.03 |
| A16C C23G U32G | 0.49 |
| G17A U28G G40C | 0.02 |
| A16U G27U G30U G44C | 0.08 |
| A16C G19A U38A | 0.05 |
| G17A G21A U38C G40A | 0.05 |
| A16G C23A G30A G35A | 0.01 |
| A16C G17C A24U | 0.12 |
| A16C G29U U38G | 0.05 |
| A16G G19A G27U G29U U32G U43G | 0 |
| A16U A26C G35U G36C | 0.05 |
| A16U G30C C42G | 0.02 |
| G17C G19U G21A C45U | 0.48 |
| A16U G17U C37A | 0.09 |
| G17A C23A C37U | 0.05 |
| A16G U20C C46U | 0.07 |
| A16U C18A C31G C37A U43A | 0.02 |
| A16U G29C U32A G36C | 0.02 |
| A16U G21A G30U G40C | 0.04 |

| Variant | self-cleavage |
| --- | --- |
| G17C A25U C31U U43A | 0.01 |
| G17U A41G U43G | 0 |
| A16C G33C U34C G40U | 0.01 |
| G17C G22C A26C C42U C45G | 0.08 |
| G17A U32C G36C C37G G40C | 0.02 |
| A16G U32C C37U | 0 |
| A16G U34C C46A | 0.01 |
| G17U A24C C46A | 0.2 |
| G17U C18G G21C | 0.1 |
| A16C U32G C37U | 0 |
| G17A G27U C45A | 0.08 |
| A16G A25G C37A | 0.02 |
| A16G G22U G30A | 0.2 |
| A16C G22U G30A G40A C45U | 0.02 |
| A16U A25U C46G | 0.06 |
| G17U C18U G19C A39C | 0.1 |
| A16G G22U C23A | 1.02 |
| A16U G21U U38G | 0.02 |
| G17A G35A C37U | 0.05 |
| G17A G22U G29U G36C | 0.03 |
| G17C C18U A26U | 0.07 |
| A16U A39C G40U | 0.02 |
| A16G A25G G30A | 0.16 |
